{
  "source": "PubChem BioAssay AID504832",
  "about": "(National Center for Advancing Translational Sciences (NCATS), 2011)",
  "note": "In all, about 310,000 compounds went through this assay and about 18,000 (5.8%) were called active. The shares of active, inactive and inconclusive entries below differ from those in the screen. The call rests on the fitted dose curve; in most records, active means well fitted inhibition curve with a large enough effect; inconclusive means small, poorly fitted or top-dose-only effect, or another doubt; inactive means no such curve, though single readings can be large or run the other way. Potencies of inconclusive entries are left out as doubtful fits. On the % scale 0 is the no-effect control and ±100 the full control effect; potency means the concentration at half of the fitted maximal effect; tags describe the fitted curve by direction and shape.",
  "data": [
    {"assay": "Primary qHTS for delayed death inhibitors of the malarial parasite plastid, 48 hour incubation", "conditions": "P. falciparum luciferase growth in erythrocytes; series mostly up to 28.7 µM; activity change, negative = inhibition: at the top concentration", "how_it_was_run": "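A one-generation exposure of luciferase-tagged malaria parasites in RPMI 1640/Albumax erythrocyte culture, 37 C and 5% CO2. Inhibition is inferred from decreased luminescence after adding detection reagent.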", "values": [
      {"smiles": "CN1C2CCC1/C(=C\\c1ccccc1F)C(=O)/C2=C/c1ccccc1F", "Potency": "inconclusive [inhibitor, partial curve]"},
      {"smiles": "COCCNC(=S)N(CCc1c(C)[nH]c2ccc(Cl)cc12)Cc1cccs1", "Potency": "inconclusive [inhibitor, partial curve]"},
      {"smiles": "COc1ccc(CNC(=O)CSc2n[nH]c(N)n2)cc1OC", "activity change, negative = inhibition": "inactive: 33.8%"},
      {"smiles": "COc1ccccc1/C=C/CN1CCCCC1", "Potency": "inconclusive [inhibitor, single point]"},
      {"smiles": "Cc1ccccc1OCc1nc2c3c(ncn2n1)-c1ccccc1CC31CCCC1", "Potency": "inconclusive [inhibitor, single point]"},
      {"smiles": "Cc1ccnc(N/C=C/C(=O)c2ccc(Br)cc2)c1", "activity change, negative = inhibition": "inactive: 58%"},
      {"smiles": "COC(=O)c1ccc(NC(=O)CCN2C(=O)C3C4CCC(C4)C3C2=O)cc1", "note": "(centres undefined)", "activity change, negative = inhibition": "inactive: 24.6%"},
      {"smiles": "Fc1ccc(-c2cc(-c3cccs3)cc(-c3ccccc3)n2)cc1", "Potency": "inconclusive [inhibitor, single point]"},
      {"smiles": "COc1ccc(CNC(=O)c2ccc3c(=O)n(CCCN4CCCC4=O)c(=S)[nH]c3c2)cc1", "Potency": "inconclusive [inhibitor, partial curve]"},
      {"smiles": "COc1ccc(Cl)cc1NC(=O)CN(C)C(=O)c1cc(C)oc1C", "Potency": "inconclusive [inhibitor, partial curve]"},
      {"smiles": "O=C(CN(c1ccc(F)cc1)S(=O)(=O)c1ccccc1)NCCSC1CCCCC1", "Potency": "active: 6.57 µM"},
      {"smiles": "CCn1cc(C(=O)N[C@@H](CCSC)C(=O)NCCCOC)c(=O)c2cc3c(cc21)OCO3", "Potency": "inconclusive [inhibitor, partial curve, poor fit]"},
      {"smiles": "O=C(/C=C/Nc1ccc(S(=O)(=O)Nc2ncccn2)cc1)c1ccc(Cl)c(Cl)c1", "activity change, negative = inhibition": "inactive: 16.5%"},
      {"smiles": "COc1ccc2[nH]c3c(NCCN(C(C)C)C(C)C)ncnc3c2c1", "Potency": "active: 2.62 µM"},
      {"smiles": "COc1ccc(S(=O)(=O)Nc2cc(C)cc(C)n2)c2ccccc12", "Potency": "inconclusive [inhibitor, partial curve]"},
      {"smiles": "O=C(C1CCN(c2ncnc3c2sc2cccc(F)c23)CC1)N1CCCC1", "Potency": "inconclusive [inhibitor, partial curve, poor fit]"},
      {"smiles": "CC(=O)/C(=N\\Nc1ccc(Cl)cc1)Sc1nnc(-c2ccccc2)n1-c1ccccc1", "activity change, negative = inhibition": "inactive: -22.2%"},
      {"smiles": "COc1ccc(/C=C/C(=O)Nc2cccc(C(C)=O)c2)cc1", "activity change, negative = inhibition": "inactive: 136%"},
      {"smiles": "OCCCNCc1ccc(N(c2ccccc2)c2ccccc2)cc1", "Potency": "inconclusive [inhibitor, partial curve]"},
      {"smiles": "Cc1cccc(C(c2c(C)nn(-c3ccccc3)c2N)c2c(C)nn(-c3ccccc3)c2N)c1", "activity change, negative = inhibition": "inactive: 0%"},
      {"smiles": "Cc1ccc(N(C(=O)c2sc(C)nc2C)C(C(=O)NCc2ccco2)c2ccccc2)cc1", "note": "(centres undefined)", "Potency": "inconclusive [inhibitor, single point]"},
      {"smiles": "Cc1cc2c(cc1S(=O)(=O)Nc1ccc(OC(F)(F)F)cc1)OCC(=O)N2", "activity change, negative = inhibition": "inactive: 21.3%"},
      {"smiles": "CC(C)c1ccc(COC(=O)CN2C(=O)NC3(CCCCC3C)C2=O)cc1", "note": "(centres undefined)", "Potency": "inconclusive [inhibitor, single point]"},
      {"smiles": "O=C(CSc1nc2ccc(N3CCOCC3)cc2c(=O)n1CCc1ccccc1)NCC1CCCO1", "note": "(centres undefined)", "Potency": "inconclusive [inhibitor, single point]"},
      {"smiles": "OC1(c2ccc(OC(F)F)cc2)CSC(=Nc2cccnc2)N1C1CC1", "note": "(centres undefined)", "Potency": "inconclusive [inhibitor, single point]"},
      {"smiles": "CCC(COC)NCc1cn(-c2ccc(OC)cc2)nc1-c1cccc(F)c1", "note": "(centres undefined)", "Potency": "active: 11.7 µM"},
      {"smiles": "COc1cc(Cl)c(CN2CCCC(CO)(Cc3ccccc3F)C2)cc1OC", "note": "(centres undefined)", "Potency": "inconclusive [inhibitor, single point]"},
      {"smiles": "c1ccc(Nc2nc(N3CCNCC3)nc(N3CCOCC3)n2)cc1", "Potency": "inconclusive [inhibitor, partial curve, poor fit]"},
      {"smiles": "CC1=NN2C(=N)/C(=C\\c3cc(C)n(-c4cccc(C)c4)c3C)C(=O)N=C2S1", "Potency": "inconclusive [inhibitor, partial curve, poor fit]"},
      {"smiles": "O=C(CSc1nc2ccccc2c(=O)n1-c1ccc(SC(F)F)cc1)Nc1ccc(N2CCOCC2)cc1", "Potency": "inconclusive [inhibitor, single point]"},
      {"smiles": "N#Cc1c(N)sc(=S)c2c1CCN(Cc1ccccc1)C2", "Potency": "active: 10.4 µM"},
      {"smiles": "O=C(Cn1c(-c2ccccc2)noc1=O)NCc1ccccc1", "Potency": "inconclusive [inhibitor, full curve, poor fit]"},
      {"smiles": "CC(NC(=O)Nc1cccc([N+](=O)[O-])c1)(C(F)(F)F)C(F)(F)F", "Potency": "inconclusive [inhibitor, single point]"},
      {"smiles": "COc1ccc(NC(=O)Cn2cnc3sc(C)c(S(=O)(=O)N4CCOCC4)c3c2=O)cc1Cl", "Potency": "inconclusive [inhibitor, partial curve, poor fit]"},
      {"smiles": "CC(=O)N1N=C(N)SC1(C)C", "activity change, negative = inhibition": "inactive: 3.16%"},
      {"smiles": "CC(C(=O)Nc1cc(C(F)(F)F)ccc1N1CCOCC1)N1C(=O)C2CC=CCC2C1=O", "note": "(centres undefined)", "activity change, negative = inhibition": "inactive: -8.3%"},
      {"smiles": "CNC(=S)N/N=C/c1ccco1", "activity change, negative = inhibition": "inactive: 4.99%"},
      {"smiles": "Clc1ccc2nc(NC3=NCN(CCN4CCOCC4)CN3)nc(-c3ccccc3)c2c1", "Potency": "inconclusive [inhibitor, single point]"},
      {"smiles": "COc1ccc(/C=N/NC(=O)c2cccnc2)cc1CN1CCc2cc(OC)c(OC)cc2C1C", "note": "(centres undefined)", "Potency": "inconclusive [inhibitor, single point]"},
      {"smiles": "COc1ccc(C2=NN(C(=O)c3ccco3)C(c3cc4ccccc4nc3Cl)C2)cc1", "note": "(centres undefined)", "activity change, negative = inhibition": "inactive: -11%"},
      {"smiles": "CC(C)c1nc2ccc(Br)cn2c1NC1CCCC1", "Potency": "inconclusive [inhibitor, partial curve, poor fit]"},
      {"smiles": "O=C(NNC(=O)c1ccccc1C(=O)O)c1ccc(O)cc1", "activity change, negative = inhibition": "inactive: 6.5%"},
      {"smiles": "COc1ccc(N(C(=O)c2snc(C(N)=O)c2N)C(C(=O)NC2CCCC2)c2ccc3ncccc3c2)cc1", "note": "(centres undefined)", "Potency": "inconclusive [inhibitor, partial curve]"},
      {"smiles": "C=CCn1c(SCC(=O)NCc2ccco2)nnc1C1CCCCC1", "Potency": "inconclusive [inhibitor, single point]"}
    ]}
  ]
}
